# Test results taken from the supplement of paper PMC8728848.
# This is one part of the list.
# B1: UDA (Urtica dioica), P11218 (protein)
# chain: MMMRFLSAVVIMSSAMAVGLVSAQRCGSQGGGGTCPALWCCSIWGWCGDSEPYCGRTCENKCWSGERSDHRCGAAVGNPPCGQDRCCSVHGWCGGGNDYCSGSKCQYRCSSSVRGPRVALSGNSTANSIGNVVVTEPLFDQMFSHRKDCPSQGFYSYHSFLVAAESFPAFGTIGDVATRKREVAAFLAHISQATSGERSDVENPHAWGLCHINTTTVTENDFCTSSDWPCAAGKKYSPRGPIQLTHNFNYGLAGQAIGEDLIQNPDLVEKDPIISFKTALWFWMSQHDNKPSCHDIVLNANSAANRIPNKGVIGNIISRAFGHDDFAVRSSSIGFYKRYCDMLGVSYGHDLKYWFDNTPSSEFQRIQMRVAA
# Experiments:
# Assay in all cases: glycan array binding signal (z-score within array); higher = stronger binding
# Settings in all cases: glycan notation: IUPAC condensed, linker removed
# [1] = molecular target: Fuc(a1-2)Gal(b1-4)GlcNAc(b1-3)Gal(b1-4)GlcNAc(b1-2)Man(a1-3)[Fuc(a1-2)Gal(b1-4)GlcNAc(b1-3)Gal(b1-4)GlcNAc(b1-2)Man(a1-6)]Man(b1-4)GlcNAc(b1-4)GlcNAc
# How it was run: (§1)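 Glycan array data came from 3228 arrays in the Consortium for Functional Glycomics database, and only arrays with an available protein sequence were kept. Glycan names were put into IUPAC-condensed notation, and columns mapping to the same glycan were averaged. The binding signal is a within-array Z-score, averaged across arrays of one protein sequence run at different concentrations or buffers and across linkers. A negative Z-score can be read as non-binding.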
# [2] = molecular target: Fuc(a1-2)Gal(b1-4)GlcNAc(b1-3)Gal(b1-4)GlcNAc(b1-3)Gal(b1-4)GlcNAc
# How it was run: as §1
# [3] = molecular target: Fuc(a1-2)Gal(b1-4)GlcNAc(b1-3)GalNAc
# How it was run: as §1
# [4] = molecular target: Fuc(a1-2)Gal(b1-4)GlcNAc(b1-3)[Fuc(a1-2)Gal(b1-4)GlcNAc(b1-6)]GalNAc
# How it was run: as §1
# [5] = molecular target: Fuc(a1-2)Gal(b1-4)GlcNAc(b1-3)[Fuc(a1-3)[Gal(b1-4)]GlcNAc(b1-6)]Gal(b1-4)Glc
# How it was run: as §1
# [6] = molecular target: Fuc(a1-2)Gal(b1-4)GlcNAc(b1-6)GalNAc
# How it was run: as §1
# [7] = molecular target: Fuc(a1-2)Gal(b1-4)GlcNAc6S
# How it was run: as §1
# [8] = molecular target: Fuc(a1-2)Gal(b1-4)[Fuc(a1-3)]GlcNAc
# How it was run: as §1
# [9] = molecular target: Fuc(a1-2)Gal(b1-4)[Fuc(a1-3)]GlcNAc(b1-2)Man(a1-3)[Fuc(a1-2)Gal(b1-4)[Fuc(a1-3)]GlcNAc(b1-2)Man(a1-6)]Man(b1-4)GlcNAc(b1-4)[Fuc(a1-6)]GlcNAc
# How it was run: as §1
# [10] = molecular target: Fuc(a1-2)Gal(b1-4)[Fuc(a1-3)]GlcNAc(b1-2)[Fuc(a1-2)Gal(b1-4)[Fuc(a1-3)]GlcNAc(b1-4)]Man(a1-3)[Fuc(a1-2)Gal(b1-4)[Fuc(a1-3)]GlcNAc(b1-2)Man(a1-6)]Man(b1-4)GlcNAc(b1-4)GlcNAc
# How it was run: as §1
# [11] = molecular target: Fuc(a1-2)Gal(b1-4)[Fuc(a1-3)]GlcNAc(b1-3)Gal(b1-4)[Fuc(a1-3)]GlcNAc
# How it was run: as §1
# [12] = molecular target: Fuc(a1-2)Gal(b1-4)[Fuc(a1-3)]GlcNAc(b1-3)Gal(b1-4)[Fuc(a1-3)]GlcNAc(b1-3)Gal(b1-4)[Fuc(a1-3)]GlcNAc
# How it was run: as §1
# [13] = molecular target: Fuc(a1-2)Gal(b1-4)[Fuc(a1-3)]GlcNAc(b1-3)GalNAc
# How it was run: as §1
# [14] = molecular target: Fuc(a1-2)Gal(b1-4)[Fuc(a1-3)]GlcNAc(b1-3)[Neu5Ac(a2-6)Gal(b1-4)GlcNAc(b1-6)]Gal(b1-4)Glc
# How it was run: as §1
# [15] = molecular target: Fuc(a1-2)Gal3S(b1-4)GlcNAc
# How it was run: as §1
# [16] = molecular target: Fuc(a1-2)Gal6S(b1-3)GlcNAc
# How it was run: as §1
# [17] = molecular target: Fuc(a1-2)Gal6S(b1-3)GlcNAc6S
# How it was run: as §1
# Fuc(a1-2)Gal6S(b1-4)Glc = molecular target: Fuc(a1-2)Gal6S(b1-4)Glc
# How it was run: as §1
# [18] = molecular target: Fuc(a1-2)Gal6S(b1-4)Glc6S
# How it was run: as §1
# Fuc(a1-2)GlcNAc = molecular target: Fuc(a1-2)GlcNAc
# How it was run: as §1
# Fuc(a1-2)[Gal(a1-3)]Gal = molecular target: Fuc(a1-2)[Gal(a1-3)]Gal
# How it was run: as §1
# [19] = molecular target: Fuc(a1-2)[Gal(a1-3)]Gal(b1-3)GalNAc
# How it was run: as §1
# [20] = molecular target: Fuc(a1-2)[Gal(a1-3)]Gal(b1-3)GalNAc(b1-3)Gal(a1-4)Gal(b1-4)Glc
# How it was run: as §1
# [21] = molecular target: Fuc(a1-2)[Gal(a1-3)]Gal(b1-3)GlcNAc
# How it was run: as §1
# [22] = molecular target: Fuc(a1-2)[Gal(a1-3)]Gal(b1-3)GlcNAc(b1-2)Man(a1-3)[Fuc(a1-2)[Gal(a1-3)]Gal(b1-3)GlcNAc(b1-2)Man(a1-6)]Man(b1-4)GlcNAc(b1-4)GlcNAc
# How it was run: as §1
# [23] = molecular target: Fuc(a1-2)[Gal(a1-3)]Gal(b1-3)GlcNAc(b1-2)Man(a1-3)[Fuc(a1-2)[Gal(a1-3)]Gal(b1-3)GlcNAc(b1-2)Man(a1-6)]Man(b1-4)GlcNAc(b1-4)[Fuc(a1-6)]GlcNAc
# How it was run: as §1
# [24] = molecular target: Fuc(a1-2)[Gal(a1-3)]Gal(b1-3)GlcNAc(b1-3)GalNAc
# How it was run: as §1
# [25] = molecular target: Fuc(a1-2)[Gal(a1-3)]Gal(b1-3)GlcNAc(b1-6)GalNAc
# How it was run: as §1
# [26] = molecular target: Fuc(a1-2)[Gal(a1-3)]Gal(b1-4)Glc
# How it was run: as §1
# [27] = molecular target: Fuc(a1-2)[Gal(a1-3)]Gal(b1-4)GlcNAc
# How it was run: as §1
binder,measurement,setting,value
B1,glycan array binding signal (z-score),[1],-0.082
same,glycan array binding signal (z-score),[2],0.359
same,glycan array binding signal (z-score),[3],-0.175
same,glycan array binding signal (z-score),[4],-0.18
same,glycan array binding signal (z-score),[5],-0.172
same,glycan array binding signal (z-score),[6],-0.173
same,glycan array binding signal (z-score),[7],-0.062
same,glycan array binding signal (z-score),[8],-0.169
same,glycan array binding signal (z-score),[9],-0.168
same,glycan array binding signal (z-score),[10],-0.16
same,glycan array binding signal (z-score),[11],-0.177
same,glycan array binding signal (z-score),[12],-0.17
same,glycan array binding signal (z-score),[13],-0.159
same,glycan array binding signal (z-score),[14],-0.183
same,glycan array binding signal (z-score),[15],-0.177
same,glycan array binding signal (z-score),[16],-0.184
same,glycan array binding signal (z-score),[17],-0.178
same,glycan array binding signal (z-score),Fuc(a1-2)Gal6S(b1-4)Glc,-0.178
same,glycan array binding signal (z-score),[18],-0.173
same,glycan array binding signal (z-score),Fuc(a1-2)GlcNAc,-0.253
same,glycan array binding signal (z-score),Fuc(a1-2)[Gal(a1-3)]Gal,-0.181
same,glycan array binding signal (z-score),[19],-0.178
same,glycan array binding signal (z-score),[20],-0.179
same,glycan array binding signal (z-score),[21],-0.167
same,glycan array binding signal (z-score),[22],-0.16
same,glycan array binding signal (z-score),[23],-0.152
same,glycan array binding signal (z-score),[24],-0.176
same,glycan array binding signal (z-score),[25],-0.177
same,glycan array binding signal (z-score),[26],-0.168
same,glycan array binding signal (z-score),[27],-0.05
